PMC6368719
These are yes or no findings as the source states them, for the method shown. Binding seen in cells or lysates may run through a third protein. Some results given as binding are weak or reduced against the parent protein; the word gives no strength. For some assays here: Where a sequence is shown, tags or fusion partners need not be part of it.

Chains of the proteins cited; added tags and fusions are not shown.
UniProt O88427: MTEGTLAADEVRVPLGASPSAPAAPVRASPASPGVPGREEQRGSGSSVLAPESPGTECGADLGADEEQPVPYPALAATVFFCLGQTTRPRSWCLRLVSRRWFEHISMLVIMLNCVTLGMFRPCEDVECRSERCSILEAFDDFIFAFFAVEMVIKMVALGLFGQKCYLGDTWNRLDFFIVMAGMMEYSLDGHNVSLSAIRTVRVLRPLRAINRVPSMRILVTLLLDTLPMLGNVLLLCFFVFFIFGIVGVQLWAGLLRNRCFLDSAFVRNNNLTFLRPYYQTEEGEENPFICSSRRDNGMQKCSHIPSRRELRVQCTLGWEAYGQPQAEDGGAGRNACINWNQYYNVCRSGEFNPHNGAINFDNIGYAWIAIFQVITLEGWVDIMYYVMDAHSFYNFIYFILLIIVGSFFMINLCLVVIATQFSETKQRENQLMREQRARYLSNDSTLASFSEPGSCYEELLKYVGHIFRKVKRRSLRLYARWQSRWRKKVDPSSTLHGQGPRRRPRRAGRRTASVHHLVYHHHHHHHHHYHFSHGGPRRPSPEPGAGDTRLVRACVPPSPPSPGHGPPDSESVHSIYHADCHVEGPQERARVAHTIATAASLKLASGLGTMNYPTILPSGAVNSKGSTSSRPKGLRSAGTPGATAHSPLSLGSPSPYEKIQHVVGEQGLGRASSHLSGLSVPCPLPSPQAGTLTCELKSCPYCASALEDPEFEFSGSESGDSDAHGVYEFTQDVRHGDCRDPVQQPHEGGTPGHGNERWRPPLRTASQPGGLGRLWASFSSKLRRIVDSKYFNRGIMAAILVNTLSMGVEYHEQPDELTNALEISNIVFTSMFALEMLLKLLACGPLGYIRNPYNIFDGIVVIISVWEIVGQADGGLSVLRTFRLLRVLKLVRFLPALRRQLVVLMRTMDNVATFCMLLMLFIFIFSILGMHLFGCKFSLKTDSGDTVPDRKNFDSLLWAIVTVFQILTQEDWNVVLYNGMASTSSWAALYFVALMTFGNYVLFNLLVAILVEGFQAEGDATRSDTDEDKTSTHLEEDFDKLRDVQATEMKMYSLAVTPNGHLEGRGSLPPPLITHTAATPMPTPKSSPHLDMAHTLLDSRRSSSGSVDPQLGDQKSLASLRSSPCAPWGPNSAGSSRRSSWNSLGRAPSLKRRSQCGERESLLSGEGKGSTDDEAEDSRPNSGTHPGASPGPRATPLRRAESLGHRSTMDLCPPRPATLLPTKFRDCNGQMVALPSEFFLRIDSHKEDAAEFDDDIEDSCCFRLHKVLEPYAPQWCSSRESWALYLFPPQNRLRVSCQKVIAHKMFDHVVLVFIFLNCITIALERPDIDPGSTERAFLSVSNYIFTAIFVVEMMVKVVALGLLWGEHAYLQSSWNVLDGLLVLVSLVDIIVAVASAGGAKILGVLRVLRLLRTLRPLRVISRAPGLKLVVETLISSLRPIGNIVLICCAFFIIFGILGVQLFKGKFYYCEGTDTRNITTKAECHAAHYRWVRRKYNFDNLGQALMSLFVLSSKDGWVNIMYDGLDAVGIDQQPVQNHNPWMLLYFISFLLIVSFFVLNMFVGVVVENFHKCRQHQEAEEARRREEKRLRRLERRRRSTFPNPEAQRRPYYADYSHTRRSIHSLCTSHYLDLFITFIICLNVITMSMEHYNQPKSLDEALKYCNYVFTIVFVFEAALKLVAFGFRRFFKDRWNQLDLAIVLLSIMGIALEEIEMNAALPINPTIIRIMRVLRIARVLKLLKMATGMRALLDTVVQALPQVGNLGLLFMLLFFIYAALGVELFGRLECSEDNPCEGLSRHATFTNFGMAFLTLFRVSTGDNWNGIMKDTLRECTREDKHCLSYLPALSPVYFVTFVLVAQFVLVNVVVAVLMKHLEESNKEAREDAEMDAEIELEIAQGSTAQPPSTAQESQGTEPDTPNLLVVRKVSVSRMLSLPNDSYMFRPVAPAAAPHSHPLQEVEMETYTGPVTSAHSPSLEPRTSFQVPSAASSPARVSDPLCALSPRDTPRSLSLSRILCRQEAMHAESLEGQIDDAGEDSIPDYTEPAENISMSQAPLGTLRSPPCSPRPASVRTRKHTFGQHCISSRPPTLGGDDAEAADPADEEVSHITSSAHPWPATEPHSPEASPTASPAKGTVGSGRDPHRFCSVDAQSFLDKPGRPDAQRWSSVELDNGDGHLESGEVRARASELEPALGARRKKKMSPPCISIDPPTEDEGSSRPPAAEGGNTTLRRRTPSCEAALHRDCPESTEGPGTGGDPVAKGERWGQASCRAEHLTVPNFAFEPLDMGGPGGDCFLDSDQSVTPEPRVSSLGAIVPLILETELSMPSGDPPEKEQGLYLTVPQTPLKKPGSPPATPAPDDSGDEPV

Assays:
[1] = biological target: Cav3.2 calcium channel (mouse (endogenous in C57BL/6 tissue)) (UniProt O88427); assay: co-IP; Cav3.2 immunoprecipitated with a polyclonal anti-Cav3.2 antibody from mouse lumbar DRG lysate (modified RIPA buffer, overnight at 4 °C); western blot for ENaC subunits
[2] = biological target: Cav3.2 calcium channel (mouse (endogenous in C57BL/6 tissue)) (UniProt O88427); assay: co-IP; Cav3.2 immunoprecipitated with a polyclonal anti-Cav3.2 antibody from mouse dorsal horn lysate (modified RIPA buffer, overnight at 4 °C); western blot for ENaC subunits
[3] = biological target: Cav3.2 calcium channel (mouse (endogenous in C57BL/6 tissue)) (UniProt O88427); assay: co-IP; Cav3.2 immunoprecipitated with a polyclonal anti-Cav3.2 antibody from mouse whole brain lysate; western blot for ENaC subunits
[4] = biological target: Cav3.2 calcium channel (endogenous in CAD cells) (mouse (endogenous in CAD)) (UniProt O88427); assay: co-IP; Cav3.2 immunoprecipitated from cells transfected with WT or mutant β-ENaC (CAD cells by the text, tsA201 by the legend); western blot for β-ENaC, densitometry

B1: β-ENaC subunit (protein, UniProt Q9WU38 1-638)
chain: MPVKKYLLKCLHRLQKGPGYTYKELLVWYCNNTNTHGPKRIICEGPKKKAMWFLLTLLFACLVCWQWGVFIQTYLSWEVSVSLSMGFKTMNFPAVTVCNSSPFQYSKVKHLLKDLDELMEAVLEKILAPEASHSNTTRTLNFTIWNHTPLVLIDERNPDHPVVLNLFGDSHNSSNPAPGSTCNAQGCKVAMRLCSANGTVCTLRNFTSATQAVTEWYILQATNIFSQVLPQDLVGMGYAPDRIILACLFGTEPCSHRNFTPIFYPDYGNCYIFNWGMTEETLPSANPGTEFGLKLILDIGQEDYVPFLASTAGARLMLHEQRTYPFIREEGIYAMAGTETSIGVLVDKLQRKGEPYSPCTMNGSDVAIKNLYSVYNTTYSIQACLHSCFQDHMIRNCSCGHYLYPLPEGEKYCNNRDFPDWAYCYLNLQMSVTQRETCLSMCKESCNDTQYKMTISMADWPSEASEDWILHVLSQERDQSSNITLSRKGIVKLNIYFQEFNYRTIEESPANNIVWLLSNLGGQFGFWMGGSVLCLIEFGEIIIDFIWITIIKLVASCKGLRRRRPQAPYTGPPPTVAELVEAHTNFGFQPDTTSCRPHGEVYPDQQTLPIPGTPPPNYDSLRLQPLDTMESDSEVEAI
For B1, the binding [1] was “binds”, the binding [2] was “binds” and the binding [3] was “binds”.

B2: γ-ENaC subunit (protein, UniProt Q9WU39 1-655)
chain: MAPGEKIKAKIKKNLPVRGPQAPTIKDLMHWYCLNTNTHGCRRIVVSRGRLRRLLWIAFTLTAVALIIWQCALLVFSFYTVSVSIKVHFQKLDFPAVTICNINPYKYSAVSDLLTDLDSETKQALLSLYGVKDVLDSTPRKRREAGSMRSTWEGTPPRFLNLIPLLVFNENEKGKARDFFTGRKRKISGKIIHKASNVMHVHESKKLVGFQLCSNDTSDCATYTFSSGINAIQEWYKLHYMNIMAQVPLEKKINMSYSAEELLVTCFFDGMSCDARNFTLFHHPMYGNCYTFNNRENATILSTSMGGSEYGLQVILYINEDEYNPFLVSSTGAKVLVHQQNEYPFIEDVGTEIETAMSTSIGMHLTESFKLSEPYSQCTEDGSDVPVTNIYNAAYSLQICLYSCFQTKMVEKCGCAQYSQPLPPAANYCNYQQHPNWMYCYYQLYQAFVREELGCQSVCKQSCSFKEWTLTTSLAQWPSEASEKWLLNVLTWDQSQQINKKLNKTDLAKLLIFYKDLNQRSIMESPANSIEMLLSNFGGQLGLWMSCSVVCVIEIIEVFFIDFFSIIARRQWQKAKDWWARRRTPPSTETPSSQQGQDNPALDTDDDLPTFTSAMRLPPAPEAPVPGTPPPRYNTLRLDSAFSSQLTDTQLTNEF
With B2 the binding [1] was “binds”, the binding [2] was “binds” and the binding [3] was “binds”.

B3: WT β-ENaC subunit (rat, HA-NT) (protein, UniProt P37090 1-638)
chain: MPVKKYLLKCLHRLQKGPGYTYKELLVWYCNNTNTHGPKRIICEGPKKKAMWFLLTLLFACLVCWQWGVFIQTYLSWEVSVSLSMGFKTMNFPAVTVCNSSPFQYSKVKHLLKDLYKLMEAVLDKILAPKSSHTNTTSTLNFTIWNHTPLVLIDERNPDHPVVLNLFGDSHNSSNPAPGSTCNAQGCKVAMRLCSANGTVCTFRNFTSATQAVTEWYILQATNIFSQVLPQDLVGMGYAPDRIILACLFGTEPCSHRNFTPIFYPDYGNCYIFNWGMTEKALPSANPGTEFGLKLILDIGQEDYVPFLASTAGARLMLHEQRTYPFIREEGIYAMAGTETSIGVLLDKLQGKGEPYSPCTMNGSDVAIQNLYSDYNTTYSIQACLHSCFQDHMIHNCSCGHYLYPLPAGEKYCNNRDFPDWAYCYLSLQMSVVQRETCLSMCKESCNDTQYKMTISMADWPSEASEDWILHVLSQERDQSSNITLSRKGIVKLNIYFQEFNYRTIEESPANNIVWLLSNLGGQFGFWMGGSVLCLIEFGEIIIDFIWITVIKLVASCKGLRRRRPQAPYTGPPPTVAELVEAHTNFGFQPDTTSCRPNAEVYPDQQTLPIPGTPPPNYDSLRLQPLDTMESDSEVEAI
In the case of B3, the binding [4] is reported as “binds”.

B4: α-ENaC subunit (protein, UniProt Q61180 1-699)
chain: MLDHTRAPELNLDLDLDVSNSPKGSMKGNNFKEQDLCPPLPMQGLGKGDKREEQALGPEPSEPRQPTEEEEALIEFHRSYRELFQFFCNNTTIHGAIRLVCSKHNRMKTAFWAVLWLCTFGMMYWQFALLFEEYFSYPVSLNINLNSDKLVFPAVTVCTLNPYRYTEIKEDLEELDRITEQTLFDLYKYNSSYTRQAGGRRRSTRDLRGALPHPLQRLRTPPPPNPARSARSASSSVRDNNPQVDRKDWKIGFQLCNQNKSDCFYQTYSSGVDAVREWYRFHYINILSRLPDTSPALEEEALGSFIFTCRFNQAPCNQANYSQFHHPMYGNCYTFNNKNNSNLWMSSMPGVNNGLSLTLRTEQNDFIPLLSTVTGARVMVHGQDEPAFMDDGGFNVRPGVETSISMRKEALDSLGGNYGDCTENGSDVPVKNLYPSKYTQQVCIHSCFQENMIKKCGCAYIFYPKPKGVEFCDYLKQSSWGYCYYKLQAAFSLDSLGCFSKCRKPCSVTNYKLSAGYSRWPSVKSQDWIFEMLSLQNNYTINNKRNGVAKLNIFFKELNYKTNSESPSVTMVSLLSNLGSQWSLWFGSSVLSVVEMAELIFDLLVITLIMLLHRFRSRYWSPGRGARGAREVASTPASSFPSRFCPHPTSPPPSLPQQGTTPPLALTAPPPAYATLGPSASPLDSAVPGSSACAPAMAL
In the case of B4, the binding [3] is reported as “no binding”.
